Source: the supplement of paper PMC10037445
“And” between values parts separate entries of the source, which are not always exact repeats. Equal entries are not always repeated. Whole data set: some 2,900 compounds, median “IRF Lucia reporter activity, fold change vs agonist alone” near 0.9, cut for the highest 2% near 2.8. Some of the results follow.

Columns and labels:
[1] = test system: RAW-Dual; assay: IRF Lucia reporter activity, fold change vs agonist alone; higher = enhanced IRF activity; details: agonist: MPLA (TLR4) […]
Procedure, shortened: (§1)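 Reporter activity is given as fold change relative to agonist-alone wells. To measure it, 50 nL of library stock was pin-tooled onto RAW-Dual macrophages (50,000 cells/well, DMEM, 384-well plates), a PRR agonist followed 1 h later, and cells stayed at 37 °C, 5% CO2. Twenty hours on, supernatant was assayed for IRF (QuantiLuc luminescence) and NF-κB (QuantiBlue, 620 nm absorbance), and wells under 70% of agonist-control IncuCyte confluency in both mask sets were marked cytotoxic.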

[2] = test system: RAW-Dual; assay: IRF Lucia reporter activity, fold change vs agonist alone; cytotoxicity flag (confluency mask): not cytotoxic; higher = enhanced IRF activity
Procedure, shortened: as §1

[3] = test system: RAW-Dual; assay: IRF Lucia reporter activity, fold change vs agonist alone; cytotoxicity flag (confluency mask): cytotoxic (confluency <70% of control); higher = enhanced IRF activity
Procedure, shortened: as §1

[4] = library stock concentration (final ~1000-fold dilution): 10 mM, cytotoxicity flag (confluency mask): not cytotoxic
[5] = agonist: 3'3'-cGAMP (STING) 10 ug/mL
[6] = library stock concentration (final ~1000-fold dilution): 10 mM, cytotoxicity flag (confluency mask): cytotoxic (confluency <70% of control)

## CC(c1cc2ccccc2s1)N(O)C(N)=O (stereo not drawn)
[1]; [4]
  IRF Lucia reporter activity: 0.792

## CC(c1cc2ccccc2s1)N(O)C(N)=O (stereo not drawn) (library stock concentration (final ~1000-fold dilution): 10 mM)
[2]; [5]
  IRF Lucia reporter activity: 1.02
[2]; agonist: LPS (TLR4) 0.1 ug/mL
  IRF Lucia reporter activity: 1.09

## O=C(/C=C/c1ccc(O)c(O)c1/C=C/c1ccc(O)c(O)c1)OC(Cc1ccc(O)c(O)c1)C(=O)O (stereo not drawn) (library stock concentration (final ~1000-fold dilution): 10 mM)
[2]; [5]
  IRF Lucia reporter activity: 0.598
[2]; agonist: LPS (TLR4) 0.1 ug/mL
  IRF Lucia reporter activity: 0.896

## CC1=C(C(=O)OC2CCCCC2)C(c2ccc([N+](=O)[O-])cc2)C2=C(CC(C)(C)CC2=O)N1 (stereo not drawn) (library stock concentration (final ~1000-fold dilution): 10 mM)
[2]; [5]
  IRF Lucia reporter activity: 0.0154
[2]; agonist: LPS (TLR4) 0.1 ug/mL
  IRF Lucia reporter activity: 0.185

## CC1=C(C(=O)OC2CCCCC2)C(c2ccc([N+](=O)[O-])cc2)C2=C(CC(C)(C)CC2=O)N1 (stereo not drawn)
[1]; [4]
  IRF Lucia reporter activity: 0.232

## NC(=O)c1ccc(-c2nc(-c3ccc4c(c3)OCO4)c(-c3ccccn3)[nH]2)cc1
[1]; [4]
  IRF Lucia reporter activity: 0.99

## NC(=O)c1ccc(-c2nc(-c3ccc4c(c3)OCO4)c(-c3ccccn3)[nH]2)cc1 (library stock concentration (final ~1000-fold dilution): 10 mM)
[2]; [5]
  IRF Lucia reporter activity: 0.666
[2]; agonist: LPS (TLR4) 0.1 ug/mL
  IRF Lucia reporter activity: 0.843

## COCCCOc1cc(CC(CC(N)C(O)CC(C(=O)NCC(C)(C)C(N)=O)C(C)C)C(C)C)ccc1OC (stereo not drawn) (library stock concentration (final ~1000-fold dilution): 10 mM)
[2]; [5]
  IRF Lucia reporter activity: 0.991 and 1.01
[2]; agonist: LPS (TLR4) 0.1 ug/mL
  IRF Lucia reporter activity: 0.869 and 1.06

## CN(C)C/C=C/C(=O)Nc1cc2c(Nc3ccc(F)c(Cl)c3)ncnc2cc1OC1CCOC1 (stereo not drawn) (library stock concentration (final ~1000-fold dilution): 10 mM)
[3]; [5]
  IRF Lucia reporter activity: 0.0236
[3]; agonist: LPS (TLR4) 0.1 ug/mL
  IRF Lucia reporter activity: 0.032

## CN(C)C/C=C/C(=O)Nc1cc2c(Nc3ccc(F)c(Cl)c3)ncnc2cc1OC1CCOC1 (stereo not drawn)
[1]; [6]
  IRF Lucia reporter activity: 0.0551

## COc1ccc(C2Sc3ccccc3N(CCN(C)C)C(=O)C2OC(C)=O)cc1.Cl (stereo not drawn)
[1]; [4]
  IRF Lucia reporter activity: 0.818

## COc1ccc(C2Sc3ccccc3N(CCN(C)C)C(=O)C2OC(C)=O)cc1.Cl (stereo not drawn) (library stock concentration (final ~1000-fold dilution): 10 mM)
[2]; [5]
  IRF Lucia reporter activity: 1.01
[2]; agonist: LPS (TLR4) 0.1 ug/mL
  IRF Lucia reporter activity: 1.08

## CC(C)CC(NC(=O)C(CCc1ccccc1)NC(=O)CN1CCOCC1)C(=O)NC(Cc1ccccc1)C(=O)NC(CC(C)C)C(=O)C1(C)CO1 (stereo not drawn)
[1]; [4]
  IRF Lucia reporter activity: 1.57

## CC(C)CC(NC(=O)C(CCc1ccccc1)NC(=O)CN1CCOCC1)C(=O)NC(Cc1ccccc1)C(=O)NC(CC(C)C)C(=O)C1(C)CO1 (stereo not drawn) (library stock concentration (final ~1000-fold dilution): 10 mM)
[2]; [5]
  IRF Lucia reporter activity: 1.34
[2]; agonist: LPS (TLR4) 0.1 ug/mL
  IRF Lucia reporter activity: 0.995

## Nc1nc(Cl)nc2c1ncn2C1OC(CO)C(O)C1F (stereo not drawn) (library stock concentration (final ~1000-fold dilution): 10 mM)
[3]; [5]
  IRF Lucia reporter activity: 0.753
[3]; agonist: LPS (TLR4) 0.1 ug/mL
  IRF Lucia reporter activity: 1

## Nc1nc(Cl)nc2c1ncn2C1OC(CO)C(O)C1F (stereo not drawn)
[1]; [6]
  IRF Lucia reporter activity: 0.85

## COc1cc(/C=C/C(=O)O)ccc1O (library stock concentration (final ~1000-fold dilution): 10 mM)
[2]; [5]
  IRF Lucia reporter activity: 1.19
[2]; agonist: LPS (TLR4) 0.1 ug/mL
  IRF Lucia reporter activity: 1.06

## O=C(NC1CCOCC1)c1ccc(-c2cc(-c3c[nH]nc3-c3ccccn3)ccn2)cc1
[1]; [4]
  IRF Lucia reporter activity: 0.899

## O=C(NC1CCOCC1)c1ccc(-c2cc(-c3c[nH]nc3-c3ccccn3)ccn2)cc1 (library stock concentration (final ~1000-fold dilution): 10 mM)
[2]; [5]
  IRF Lucia reporter activity: 0.591
[2]; agonist: LPS (TLR4) 0.1 ug/mL
  IRF Lucia reporter activity: 0.823

## CC(C)C(C(=O)O)N1C(=O)/C(=C/c2ccc(Br)cc2)SC1=S (stereo not drawn) (library stock concentration (final ~1000-fold dilution): 10 mM)
[2]; [5]
  IRF Lucia reporter activity: 0.747
[2]; agonist: LPS (TLR4) 0.1 ug/mL
  IRF Lucia reporter activity: 1.58

## COC1=CC(=O)CC(C)C12Oc1c(Cl)c(OC)cc(OC)c1C2=O (stereo not drawn) (library stock concentration (final ~1000-fold dilution): 10 mM)
[2]; [5]
  IRF Lucia reporter activity: 1.74
[2]; agonist: LPS (TLR4) 0.1 ug/mL
  IRF Lucia reporter activity: 1.44

## COC1=CC(=O)CC(C)C12Oc1c(Cl)c(OC)cc(OC)c1C2=O (stereo not drawn)
[1]; [4]
  IRF Lucia reporter activity: 1.39

## CC(=N)NCc1cccc(CN)c1.Cl.Cl (library stock concentration (final ~1000-fold dilution): 10 mM)
[2]; [5]
  IRF Lucia reporter activity: 0.906
[2]; agonist: LPS (TLR4) 0.1 ug/mL
  IRF Lucia reporter activity: 0.936

## COc1ccc(C=Cc2cc(OC)c(OC)c(OC)c2)cc1OP(=O)(O)O
[1]; library stock concentration (final ~1000-fold dilution): 10 mM water, cytotoxicity flag (confluency mask): cytotoxic (confluency <70% of control)
  IRF Lucia reporter activity: 1.62

## COc1ccc(C=Cc2cc(OC)c(OC)c(OC)c2)cc1OP(=O)(O)O (library stock concentration (final ~1000-fold dilution): 10 mM water)
[3]; [5]
  IRF Lucia reporter activity: 0.0698
[3]; agonist: LPS (TLR4) 0.1 ug/mL
  IRF Lucia reporter activity: 1.96

## C=CC1CC1(NC(=O)C1CC2CN1C(=O)C(C(C)(C)C)NC(=O)OC1CC1CCCCCc1nc3ccc(OC)cc3nc1O2)C(=O)NS(=O)(=O)C1CC1 (stereo not drawn)
[1]; [4]
  IRF Lucia reporter activity: 1.15

## C=CC1CC1(NC(=O)C1CC2CN1C(=O)C(C(C)(C)C)NC(=O)OC1CC1CCCCCc1nc3ccc(OC)cc3nc1O2)C(=O)NS(=O)(=O)C1CC1 (stereo not drawn) (library stock concentration (final ~1000-fold dilution): 10 mM)
[2]; [5]
  IRF Lucia reporter activity: 1.09
[2]; agonist: LPS (TLR4) 0.1 ug/mL
  IRF Lucia reporter activity: 1.04
